Structures are written as SMILES. Screen size: about 45,000 compounds; about 200 (0.44%) were called active. Another 7% or so got no clear call; they are omitted. The call rests on the fitted dose curve; in most records, active means well fitted activation curve with a large enough effect; inconclusive means small, poorly fitted or top-dose-only effect; inactive means no such curve, though single readings can be large or run the other way. The list shows a part of the results.

A short description of the test: qHTS of TDP-43 Inhibitors: NCGC Sytravon Library Screen. Further: 0% is about no effect; nearly all actives have a fitted effect of over 55% in size. Conditions: yeast TDP-43 toxicity rescue, BacTiter-Glo growth, 24 h; series mostly up to 46.1 µM; growth rescue (activation): at the top concentration. The method, boiled down:
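TDP-43-expressing yeast, pregrown in raffinose, seeded at OD600 0.02 in galactose medium with compound for 24 hr at 30 deg C. Growth read by BacTiter-Glo luminescence, so rescue of toxicity appears as activation.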
In general terms: qHTS replaces the single test concentration by a dilution series.
Consider `O=C(NCC1CCCO1)C1CCCN1C(=O)Nc1ccccc1[N+](=O)[O-]` (stereo not given), for which the “growth rescue (activation)” value is inactive: 11.5%. With `CN(C(=O)CSc1nnc(Cc2ccccc2F)n1N)C1CCCCC1`, the “growth rescue (activation)” value is inactive: 3.23%. Regarding `CCc1cccc(CC)c1NC(=S)NCC(c1cccnc1)N(C)C` (stereo not given), the “growth rescue (activation)” value is inactive: -11.9%. In the case of `CC(=O)c1cccc(NC(=O)c2ccccc2OCc2ccc(F)cc2)c1`, the “growth rescue (activation)” value is inactive: 2.16%. The same measure for `CCCn1nc(NC(=O)C2CCCO2)c2cc3ccc(C)cc3nc21` (stereo not given): inactive: 4.03%. On to `O=C(NCc1cccc(Cl)c1)NCc1cccc(Cl)c1`, for which the “growth rescue (activation)” value was inactive: -1.79%.

`O=C(NCCc1ccccc1)c1ccccc1NC(=O)C1CCCO1` (stereo not given): the “growth rescue (activation)” value was inactive: -1.4%. With `O=C(Cc1cccs1)NNC(=S)NCc1ccco1`, the “growth rescue (activation)” value was inactive: 7.39%. For the compound `Cc1cc(NC(=O)CSc2nnnn2-c2ccc(C)c(C)c2)no1`, the “growth rescue (activation)” value is inactive: -0.189%. As for `COC(=O)c1ccc(NC(=O)CN(c2ccc3c(c2)OCO3)S(C)(=O)=O)cc1`, the “growth rescue (activation)” value is inactive: 2.33%. Turning to `COc1ccc(/C(O)=C/C(=O)C(=O)NNC(=O)c2ccccc2)cc1`, the “growth rescue (activation)” value was inactive: -22.8%.

As to `CC(=O)Nc1ccc(C(=O)OCC(=O)N2CCCC2)cc1`, the “growth rescue (activation)” value is inactive: 11.5%.

In the case of `COc1cc(OC)cc(C(=O)NC2CC3CCC(C2)N3Cc2ccco2)c1` (stereo not given), the “growth rescue (activation)” value is inactive: 2.78%.

As for `COc1ccc(CNC(=O)C(C)c2ccc([N+](=O)[O-])cc2)cc1` (stereo not given), the “growth rescue (activation)” value is inactive: 21.3%. Then `COc1ccc(OC)c(NC(=O)C(CCSC)NS(=O)(=O)c2cccs2)c1` (stereo not given), with inactive: 5.8%; and `Cc1onc(C(=O)N2CCN(c3ccccc3F)CC2)c1-c1ccccc1Cl`, with inactive: 13.4%. For the compound `Cc1cc(F)ccc1C(O)c1ncc(-c2cccc(OCc3ccccc3)c2)[nH]1` (stereo not given), the “growth rescue (activation)” value was inactive: 3.82%.

On to `COc1ccc(Cl)cc1N(C(=O)c1ccco1)C(C(=O)NC1CCCC1)c1ccncc1` (stereo not given), for which the “growth rescue (activation)” value was inactive: 5.54%.

Turning to `O=C(O)C1Cc2ccccc2CN1S(=O)(=O)/C=C/c1ccccc1` (stereo not given), the “growth rescue (activation)” value was inactive: 0.466%. Then `COc1ccccc1C(=O)NNC(=O)Cc1ccccc1`, with inactive: -5.17%; and `Cn1cnnc1SCC(=O)Nc1ccc(Cl)cn1`, with inactive: -6.3%. Take `Nc1cc(S(=O)(=O)N2CCCCC2)ccc1N1CCOCC1`: the “growth rescue (activation)” value is inactive: -2.93%. The same measure for `O=C(CN1C(=O)C2C3C=CC(C3)C2C1=O)Nc1nncs1` (stereo not given): inactive: -9.93%.

With `CCCc1nc2nc(C)c(NS(=O)(=O)c3ccc4c(c3)CCCC4)c(=O)n2[nH]1`, the “growth rescue (activation)” value is inactive: 16.7%. Turning to `Cc1ccc(NC(=O)C2CCN(S(=O)(=O)c3ccc(N4CCCC4=O)cc3)CC2)cc1Cl`, the “growth rescue (activation)” value is inactive: -5.72%. In the case of `COc1ccc(S(=O)(=O)NCc2cccnc2)cc1NC(=O)c1ccccc1C`, the “growth rescue (activation)” value was inactive: 0.378%. As to `Cc1ccc(C(=O)NNC(=O)CSc2nc(N)cc(N)n2)cc1`, the “growth rescue (activation)” value was inactive: 14%. As to `N=C1SCC(=O)N1c1ccccc1Cl`, the “growth rescue (activation)” value was inactive: -9.07%. In the case of `COc1cccc(CNC(=O)Cc2ccc(-c3ccccc3)cc2)c1`, the “growth rescue (activation)” value is inactive: 27.7%. Then `Cc1ccc(C(=O)Nc2cccc(NC(=O)c3cccnc3)c2)cc1`, with inactive: -2.85%; and `OC(c1cccc(Cl)c1)c1ncc(-c2ccccc2Cl)[nH]1` (stereo not given), with inactive: 7.51%; and `Cc1ccc(C2C3=C(CCCC3=O)N=C3c4ccccc4C(=O)C32)cc1` (stereo not given), with inactive: -4.81%. Then `CCc1nc2ccc(C(=O)NCc3ccc4c(c3)OCO4)cn2c1N(C)Cc1cccs1`, with inactive: 13.2%; and `CCCCCCn1c(=O)[nH]c2nc3cc(N)ccc3nc2c1=O`, with inactive: 14.7%; and `Cc1cc(C)c(S(=O)(=O)NCCCn2ccnc2)c(C)c1`, with inactive: 15.8%. Take `O=C(COc1ccccc1[N+](=O)[O-])N(Cc1ccccc1)c1ccccn1`: the “growth rescue (activation)” value was inactive: 7.19%. As to `COC(=O)C1=C(C)NC(=O)NC1c1ccco1` (stereo not given), the “growth rescue (activation)” value is inactive: 1.86%.

On to `CC1(C)C2CC=C(/C=N/NC(=O)c3ccc(O)cc3)C1C2` (stereo not given), for which the “growth rescue (activation)” value was inactive: 0.206%. The same measure for `CC1(C(=O)NS(=O)(=O)c2cccc(Cl)c2)CCN1C(=O)CC1CCCCC1` (stereo not given): inactive: -1.18%. `Cc1nc(NCCc2ccc(F)cc2)c2nnn(Cc3ccccc3)c2n1`: the “growth rescue (activation)” value is inactive: -7.4%.

On to `CCOC(=O)C(=Cc1c[nH]c2ccc(S(=O)(=O)N(C)C)cc12)C(=O)OCC`, for which the “growth rescue (activation)” value is inactive: 8.08%. The same measure for `O=C1CCCC(O)=C1N=Nc1c(Cl)cc(Cl)cc1Cl`: inactive: 8.39%; for `O=C(Cc1ccc(Cl)cc1)N/N=C/c1c(Cl)cccc1Cl`: inactive: 0.0105%.

As for `O=C(O)C1(S(=O)(=O)c2ccc(Cl)cc2)CCC1`, the “growth rescue (activation)” value is inactive: 0.773%. Then `CCN(CC)C(=O)c1cccc(-c2csc(C(O)c3ccc(F)c(OC)c3)n2)c1` (stereo not given), with inactive: 1.08%; and `COC(=O)c1ccc(COC(=O)C(CCS(C)(=O)=O)N2C(=O)c3ccccc3C2=O)cc1` (stereo not given), with inactive: 12.4%; and `COc1ccc(Cl)cc1NC(=O)c1cc2c(=O)n3ccccc3nc2s1`, with inactive: 2.74%. The same measure for `O=C(O)C(C/C(=N/O)c1ccc(Br)cc1)P(=O)(c1ccccc1)c1ccccc1` (stereo not given): inactive: -5.19%; for `O=C(NCc1cccnc1)C1CCN(S(=O)(=O)c2cc([N+](=O)[O-])ccc2Cl)CC1`: inactive: 15.4%; for `O=C(O)c1cc(S(=O)(=O)Nc2ccc(OCc3ccccc3)cc2)ccc1Br`: inactive: 6.47%.

Consider `Cn1c(CC(=O)Nc2ccc(F)cc2)nnc1SCC(=O)NC1CCCCC1`, for which the “growth rescue (activation)” value was inactive: 12.3%.

Consider `O=C1Nc2ccccc2Oc2cc(Oc3ccccc3)ccc21`, for which the “growth rescue (activation)” value is inactive: 4.6%. Consider `COc1ccc(OCCN2CCC(C(=O)NC(c3ccc(C)cc3)c3ccccn3)CC2)cc1` (stereo not given), for which the “growth rescue (activation)” value was inactive: 13.8%. With `O=C(NCCCN=C1NS(=O)(=O)c2ccccc21)c1ccc(Cl)cc1`, the “growth rescue (activation)” value was inactive: 1.13%. As to `COc1ccc(/C=N/Nc2ncc(Br)cn2)c(OC)c1`, the “growth rescue (activation)” value is inactive: 10.3%.

`Cc1ccc(CNc2nc3cc(-c4ccccc4)sc3c(=O)n2C)c(C)c1`: the “growth rescue (activation)” value is inactive: 5.65%.

Regarding `CSc1ncccc1C(=O)OCC(=O)c1cccs1`, the “growth rescue (activation)” value is inactive: 17.9%. As for `COc1ccc(CCNC(=O)COC(=O)CCC(=O)c2cccs2)cc1OC`, the “growth rescue (activation)” value is inactive: 8.51%. Take `CCn1nc(C)c(CN2CCC(n3nccc3NC(=O)CCCc3ccccc3)CC2)c1C`: the “growth rescue (activation)” value was inactive: -9.27%.

On to `O=C(NCC1CCCO1)c1nn2c(C(F)(F)F)cc(-c3ccc(Br)o3)nc2c1Br` (stereo not given), for which the “growth rescue (activation)” value was inactive: 5.55%.

On to `O=c1c2sccc2[nH]c(=S)n1-c1ccccc1`, for which the “growth rescue (activation)” value was inactive: -4.92%. For the compound `CC(=O)c1c(C)oc2ccc(N(C(C)=O)S(=O)(=O)c3cccc4cccnc34)cc12`, the “growth rescue (activation)” value is inactive: -5.81%. With `CC(=O)c1c(C(C)=O)c(C)n(-c2nc(-c3ccccc3)c(C)s2)c1C`, the “growth rescue (activation)” value was inactive: 28.2%. Turning to `O=C(Nc1nnc(CC2=CCCCC2)s1)Nc1ccccc1F`, the “growth rescue (activation)” value is inactive: 17.4%. Consider `Cc1ccc(S(=O)(=O)N2CCCCC2)cc1NC(=O)CSc1ccc2c(c1)OCCO2`, for which the “growth rescue (activation)” value is inactive: 19.5%.

`CN1CCCCCC1C(=O)N1CCC(N2CCC(C(=O)N3CCOCC3)CC2)CC1` (stereo not given): the “growth rescue (activation)” value was inactive: 4.36%. For `Cc1ccc(S(=O)(=O)NCc2ccncc2)cc1C`, the “growth rescue (activation)” value is inactive: -0.618%. Take `O=C(NC1CCCCC1)C1CC(=O)N(c2cccc([N+](=O)[O-])c2)C1` (stereo not given): the “growth rescue (activation)” value was inactive: -20.7%.

`CC(=O)C1=C(O)C(=O)N(CCNCCO)C1c1ccccc1` (stereo not given): the “growth rescue (activation)” value is inactive: -0.54%. Then `O=C(NCc1ccncc1)c1ccc(NS(=O)(=O)c2ccccc2)cc1`, with inactive: 5.52%.
